# Experimental data taken from publication PMC4336329 (PLoS ONE, 2015).
# In all, about 310,000 compounds went through this assay and about 14,000 (4.5%) showed an effect of 50% or more. The effect is printed as a negative number. Some of the results follow.
# Target: human ether-à-go-go-related gene (hERG) potassium channel (human, UniProt Q12809)
# Assay: primary screen, population patch clamp on CHO cells stably expressing hERG
# 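Note: peak tail current of the secondary pulse compared with the same well before compound.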
# Sequence of human ether-à-go-go-related gene (hERG) potassium channel (Q12809 whole entry, looked up): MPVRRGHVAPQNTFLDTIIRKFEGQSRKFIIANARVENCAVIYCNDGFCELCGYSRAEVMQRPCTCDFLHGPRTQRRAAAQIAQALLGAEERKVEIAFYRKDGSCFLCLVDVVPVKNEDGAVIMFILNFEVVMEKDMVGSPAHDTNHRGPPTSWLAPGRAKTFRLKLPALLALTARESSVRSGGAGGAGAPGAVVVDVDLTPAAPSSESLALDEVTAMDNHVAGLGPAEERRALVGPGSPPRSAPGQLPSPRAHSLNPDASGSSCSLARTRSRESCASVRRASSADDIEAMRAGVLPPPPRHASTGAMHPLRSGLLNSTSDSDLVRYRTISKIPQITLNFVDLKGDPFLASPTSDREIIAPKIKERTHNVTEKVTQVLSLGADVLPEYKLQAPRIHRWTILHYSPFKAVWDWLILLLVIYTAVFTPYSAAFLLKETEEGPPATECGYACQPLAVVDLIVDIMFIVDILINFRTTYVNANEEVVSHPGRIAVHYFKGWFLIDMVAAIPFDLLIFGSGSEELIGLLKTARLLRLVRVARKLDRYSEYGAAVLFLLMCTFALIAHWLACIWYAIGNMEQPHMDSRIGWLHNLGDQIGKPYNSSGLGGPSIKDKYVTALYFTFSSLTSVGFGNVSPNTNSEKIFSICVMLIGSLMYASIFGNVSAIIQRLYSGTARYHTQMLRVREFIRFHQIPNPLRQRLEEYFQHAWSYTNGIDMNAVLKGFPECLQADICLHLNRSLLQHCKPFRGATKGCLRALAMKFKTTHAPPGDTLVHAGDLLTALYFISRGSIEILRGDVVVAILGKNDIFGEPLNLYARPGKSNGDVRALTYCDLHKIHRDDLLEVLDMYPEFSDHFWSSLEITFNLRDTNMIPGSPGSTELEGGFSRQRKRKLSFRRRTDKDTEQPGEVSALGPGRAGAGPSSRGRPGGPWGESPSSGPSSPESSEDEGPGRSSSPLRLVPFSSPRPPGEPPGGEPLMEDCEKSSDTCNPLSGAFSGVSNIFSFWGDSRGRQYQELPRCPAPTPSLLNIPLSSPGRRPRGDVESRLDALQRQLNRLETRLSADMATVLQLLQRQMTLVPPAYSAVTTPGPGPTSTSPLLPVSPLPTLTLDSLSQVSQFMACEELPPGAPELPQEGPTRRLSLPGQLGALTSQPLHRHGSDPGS
row,Structure (SMILES),"hERG current change (%, negative = inhibition) at 10uM [%]"
1,CCOc1ccc(NC(=O)C(C)NC(=O)c2ccccc2Cl)cc1S(=O)(=O)N1CCCC1 (stereo not drawn),-14.3
2,COc1ccc(-n2ncc3c(N4CCc5ccccc54)ncnc32)cc1,0.927
3,CCOc1ccc(OCCC(=O)N(CC)CC(=O)NCc2ccc(Cl)cc2)cc1,-60.5
4,Cc1onc(-c2ccccc2)c1C(=O)NC1CCC(C)CC1 (stereo not drawn),-2.17
5,Br.COc1ccc(-c2csc(Nc3ccc(S(=O)(=O)Nc4cc(OC)nc(OC)n4)cc3)n2)cc1,8.67
6,CC(=O)C1C2c3ccccc3O[C@@]1(C)N=c1s/c(=C/c3ccoc3)c(=O)n12 (stereo partly drawn),-26.7
7,C#Cc1ccc([C@@H]2C=C(C(=O)O)O[C@H](OCCCCO)C2)cc1,16.3
8,CN(CCOCCOc1ccc(F)cc1)Cc1ccccc1.O=C(O)C(=O)O,-48.7
9,CC1CC(C)CN(S(=O)(=O)c2ccc3c(c2)oc(=O)n3CC(=O)NCCCOC(C)C)C1 (stereo not drawn),-2.55
10,CCOc1ccc2[nH]c3c(NCCOC)ncnc3c2c1,-9.5
11,COc1cccc(-c2noc(CCC(=O)Nc3cccnc3)n2)c1,-5.9
12,COC(=O)C1=CN(c2ccc(F)cc2)C=C(C(=O)OC)C1c1cccc([N+](=O)[O-])c1,-26.5
13,N#CC(c1ccncc1)(c1ncc(C(F)(F)F)cc1Cl)N1CCOCC1 (stereo not drawn),-3.42
14,CCN(CC)C(=O)CSCc1cnn(-c2ccccc2)c1-n1cccc1,-24.7
15,COc1ccc(C)cc1S(=O)(=O)N1CCCCCC1,-3.18
16,COc1nc(OC)nc(N2CCCCCC2)n1,2.96
17,Br.NCCCSC1=NCCCN1,7.05
18,COc1cc2c(C)nc3onc(-c4ccccc4)c3c2cc1OC,14.4
19,CN1CCN(Cc2cn(C)c3ccccc23)CC1CCO (stereo not drawn),25.5
20,Cc1cc(C)n(CC(O)Cn2c3ccc(Br)cc3c3cc(Br)ccc32)c(=O)n1 (stereo not drawn),19.5
21,CCOc1ccccc1N(C)C(=O)C1CCN(S(=O)(=O)c2cccc3nonc23)CC1,-27.1
22,CCOC(=O)C(C)Oc1ccc(=O)n(-c2ccccc2)n1 (stereo not drawn),10.8
23,Cc1ccc(Cn2c(N)nc3ccccc32)cc1,-10.2

row,Structure (SMILES),"hERG current change (%, negative = inhibition) at 10uM [%]"
1,Cc1ccc(S(=O)(=O)NC2(C(F)(F)F)NC(=O)N(c3ccccc3F)C2=O)cc1 (stereo not drawn),27.4
2,O=C(CSc1cc([N+](=O)[O-])cc(S(=O)(=O)Cc2ccccc2)c1)NC1CC1,-9.88
3,CCOC(=O)N1CCN(C(=O)CN(Cc2ccc(Cl)cc2)S(C)(=O)=O)CC1,-15.5
4,CCCC/S(C)=N/S(=O)(=O)c1ccc(C)cc1 (stereo not drawn),-3.99
5,COc1ccc([N+](=O)[O-])cc1NC(=O)CC1SC(=Nc2cccc(C)c2C)N(/N=C/c2cccc(OC)c2OC)C1=O (stereo not drawn),31.1
6,C#CC1(O)CCC2C3CCC4=C/C(=N/OCC(=O)NCC(=O)NC(C(=O)O)C(C)C)CC[C@]4(C)C3CC[C@@]21C (stereo partly drawn),13
7,Cc1ccsc1/C=N/Nc1ncc(Cl)cc1Cl,5.75
8,COc1cc(Oc2nc(C(F)(F)F)nc3ccccc23)ccc1C=O,17
9,COC(=O)c1cc(Br)c(=O)n(CCc2ccc(F)cc2)c1,-24.9
10,O=C(N/N=C/c1ccc[nH]1)c1ccc(COc2cccc3cccnc23)cc1,-58.3
11,CCOc1ccc(N(CC(=O)NN=C2CCCC2)S(C)(=O)=O)cc1,4.44
12,CCCCN1C=C(C(=O)OC)C(c2ccccc2C(F)(F)F)C(C(=O)OC)=C1,-1.84
13,Cc1ccc2nc(-c3ccccc3C)oc(=O)c2c1,19.4
14,O=C(Cc1c(Cl)cccc1Cl)Nc1cccc(S(=O)(=O)N2CCOCC2)c1,7.21
15,Nc1ccc(Br)c2c1C(=O)c1ccccc1C2=O,7.66
16,COc1cccc(-c2ccc3nnc(SCC(=O)N4CCOCC4)n3n2)c1,-6.27
17,O=c1cc(O)c(-c2ccc(Cl)c(Cl)c2)c(Cl)[nH]1,11.8
18,Cc1cc2c(cc1C)CN(c1ccccc1)C2,6.46
19,COc1ccc(N(C(=O)c2snc(C(N)=O)c2N)C(C(=O)NCc2ccc(F)cc2)c2ccc(O)cc2)cc1 (stereo not drawn),8.38
20,CC(=O)c1cc(C#N)c(Oc2cccc(C(F)(F)F)c2)nc1C,16.5
21,O=C(NCCCN1CCCC1=O)[C@H](CSCc1ccccc1)N1Cc2ccccc2C1=O,1.78
22,O=C(COc1cccc(F)c1)Nc1nc(-c2ccncc2)cs1,10.4
